# Source: the supplement of paper PMC8728848
# The list shows a part of the results.
# Legend:
# Assay in all cases: glycan array binding signal (z-score within array); higher = stronger binding
# Conditions in all cases: glycan notation: IUPAC condensed, linker removed
# [1] = target: Fuc(a1-2)Gal(b1-4)[Fuc(a1-3)]GlcNAc(b1-2)Man(a1-6)[Fuc(a1-2)Gal(b1-4)[Fuc(a1-3)]GlcNAc(b1-2)Man(a1-3)]Man(b1-4)GlcNAc(b1-4)[Fuc(a1-6)]GlcNAc
# Method in brief: (§1)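 Columns mapping to the same glycan were averaged after glycan names were converted to IUPAC-condensed notation. The data come from 3228 arrays in the Consortium for Functional Glycomics database, limited to those with an available protein sequence. Binding is reported as a within-array Z-score averaged across arrays of one protein sequence and across linkers.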
# [2] = target: Fuc(a1-2)Gal(b1-4)[Fuc(a1-3)]GlcNAc(b1-2)[Fuc(a1-2)Gal(b1-4)[Fuc(a1-3)]GlcNAc(b1-4)]Man(a1-3)[Fuc(a1-2)Gal(b1-4)[Fuc(a1-3)]GlcNAc(b1-2)Man(a1-6)]Man(b1-4)GlcNAc(b1-4)GlcNAc
# Method in brief: as §1
# [3] = target: Fuc(a1-2)Gal(b1-4)[Fuc(a1-3)]GlcNAc(b1-3)Gal(b1-4)[Fuc(a1-3)]GlcNAc
# Method in brief: as §1
# [4] = target: Fuc(a1-2)Gal(b1-4)[Fuc(a1-3)]GlcNAc(b1-3)Gal(b1-4)[Fuc(a1-3)]GlcNAc(b1-3)Gal(b1-4)[Fuc(a1-3)]GlcNAc
# Method in brief: as §1
# [5] = target: Fuc(a1-2)Gal(b1-4)[Fuc(a1-3)]GlcNAc(b1-3)GalNAc
# Method in brief: as §1
# [6] = target: Fuc(a1-2)Gal(b1-4)[Fuc(a1-3)]GlcNAc(b1-3)[Neu5Ac(a2-6)Gal(b1-4)GlcNAc(b1-6)]Gal(b1-4)Glc
# Method in brief: as §1
# [7] = target: Fuc(a1-2)Gal6S(b1-3)GlcNAc
# Method in brief: as §1
# [8] = target: Fuc(a1-2)Gal6S(b1-3)GlcNAc6S
# Method in brief: as §1
# [9] = target: Fuc(a1-2)Gal6S(b1-4)Glc
# Method in brief: as §1
# [10] = target: Fuc(a1-2)Gal6S(b1-4)Glc6S
# Method in brief: as §1
# [11] = target: Fuc(a1-2)Gal6S(b1-4)GlcNAc
# Method in brief: as §1
# [12] = target: Fuc(a1-2)[Gal(a1-3)]Gal
# Method in brief: as §1
# [13] = target: Fuc(a1-2)[Gal(a1-3)]Gal(b1-3)GalNAc
# Method in brief: as §1
# [14] = target: Fuc(a1-2)[Gal(a1-3)]Gal(b1-3)GlcNAc
# Method in brief: as §1
# [15] = target: Fuc(a1-2)[Gal(a1-3)]Gal(b1-3)GlcNAc(b1-2)Man(a1-3)[Fuc(a1-2)[Gal(a1-3)]Gal(b1-3)GlcNAc(b1-2)Man(a1-6)]Man(b1-4)GlcNAc(b1-4)GlcNAc
# Method in brief: as §1
# [16] = target: Fuc(a1-2)[Gal(a1-3)]Gal(b1-3)GlcNAc(b1-2)Man(a1-3)[Fuc(a1-2)[Gal(a1-3)]Gal(b1-3)GlcNAc(b1-2)Man(a1-6)]Man(b1-4)GlcNAc(b1-4)[Fuc(a1-6)]GlcNAc
# Method in brief: as §1
# [17] = target: Fuc(a1-2)[Gal(a1-3)]Gal(b1-3)GlcNAc(b1-3)GalNAc
# Method in brief: as §1
# [18] = target: Fuc(a1-2)[Gal(a1-3)]Gal(b1-4)Glc
# Method in brief: as §1
# [19] = target: Fuc(a1-2)[Gal(a1-3)]Gal(b1-4)GlcNAc
# Method in brief: as §1
# [20] = target: Fuc(a1-2)[Gal(a1-3)]Gal(b1-4)GlcNAc(b1-2)Man(a1-3)[Fuc(a1-2)[Gal(a1-3)]Gal(b1-4)GlcNAc(b1-2)Man(a1-6)]Man(b1-4)GlcNAc(b1-4)GlcNAc
# Method in brief: as §1
# [21] = target: Fuc(a1-2)[Gal(a1-3)]Gal(b1-4)GlcNAc(b1-2)Man(a1-3)[Fuc(a1-2)[Gal(a1-3)]Gal(b1-4)GlcNAc(b1-2)Man(a1-6)]Man(b1-4)GlcNAc(b1-4)[Fuc(a1-6)]GlcNAc
# Method in brief: as §1
# [22] = target: Fuc(a1-2)[Gal(a1-3)]Gal(b1-4)GlcNAc(b1-3)GalNAc
# Method in brief: as §1
# [23] = target: Fuc(a1-2)[Gal(a1-3)]Gal(b1-4)GlcNAc(b1-6)GalNAc
# Method in brief: as §1
# [24] = target: Fuc(a1-2)[Gal(a1-3)]Gal(b1-4)[Fuc(a1-3)]Glc
# Method in brief: as §1
# [25] = target: Fuc(a1-2)[Gal(a1-3)]Gal(b1-4)[Fuc(a1-3)]GlcNAc
# Method in brief: as §1
# [26] = target: Fuc(a1-2)[Gal(a1-3)]Gal(b1-4)[Fuc(a1-3)]GlcNAc(b1-3)GalNAc
# Method in brief: as §1
# [27] = target: Fuc(a1-2)[Gal(a1-4)]Gal(b1-4)GlcNAc
# Method in brief: as §1
# [28] = target: Fuc(a1-2)[GalNAc(a1-3)]Gal
# Method in brief: as §1
# [29] = target: Fuc(a1-2)[GalNAc(a1-3)]Gal(b1-3)GalNAc(a1-3)[Fuc(a1-2)]Gal(b1-4)GlcNAc
# Method in brief: as §1
# [30] = target: Fuc(a1-2)[GalNAc(a1-3)]Gal(b1-3)GlcNAc
# Method in brief: as §1
# [31] = target: Fuc(a1-2)[GalNAc(a1-3)]Gal(b1-3)GlcNAc(b1-2)Man(a1-3)[Fuc(a1-2)[GalNAc(a1-3)]Gal(b1-3)GlcNAc(b1-2)Man(a1-6)]Man(b1-4)GlcNAc(b1-4)GlcNAc
# Method in brief: as §1
# [32] = target: Fuc(a1-2)[GalNAc(a1-3)]Gal(b1-3)GlcNAc(b1-2)Man(a1-3)[Fuc(a1-2)[GalNAc(a1-3)]Gal(b1-3)GlcNAc(b1-2)Man(a1-6)]Man(b1-4)GlcNAc(b1-4)[Fuc(a1-6)]GlcNAc
# Method in brief: as §1
# [33] = target: Fuc(a1-2)[GalNAc(a1-3)]Gal(b1-3)GlcNAc(b1-3)GalNAc
# Method in brief: as §1
# [34] = target: Fuc(a1-2)[GalNAc(a1-3)]Gal(b1-3)GlcNAc(b1-6)GalNAc
# Method in brief: as §1
# [35] = target: Fuc(a1-2)[GalNAc(a1-3)]Gal(b1-4)Glc
# Method in brief: as §1
# [36] = target: Fuc(a1-2)[GalNAc(a1-3)]Gal(b1-4)GlcNAc
# Method in brief: as §1
# [37] = target: Fuc(a1-2)[GalNAc(a1-3)]Gal(b1-4)GlcNAc(b1-2)Man(a1-3)[Fuc(a1-2)[GalNAc(a1-3)]Gal(b1-4)GlcNAc(b1-2)Man(a1-6)]Man(b1-4)GlcNAc(b1-4)GlcNAc
# Method in brief: as §1
# [38] = target: Fuc(a1-2)[GalNAc(a1-3)]Gal(b1-4)GlcNAc(b1-2)Man(a1-3)[Fuc(a1-2)[GalNAc(a1-3)]Gal(b1-4)GlcNAc(b1-2)Man(a1-6)]Man(b1-4)GlcNAc(b1-4)[Fuc(a1-6)]GlcNAc
# Method in brief: as §1
binder,measurement,setting,value
SalT (Orysata sativa) (protein) MTLVKIGLWGGNGGSAQDISVPPKKLLGVTIYSSDAIRSIAFNYIGVDGQEYAIGPWGGGEGTSTEIKLGSSEHIKEISGTHGPVYDLADIVTYLKIVTSANNTYEAGVPNGKEFSIPLQDSGHVVGFFGRSGTLIDAIGIYVHPILEQKLISEEDLNSAVDHHHHHH,glycan array binding signal (z-score),[1],0.079
same,glycan array binding signal (z-score),[2],-0.302
same,glycan array binding signal (z-score),[3],-0.308
same,glycan array binding signal (z-score),[4],-0.308
same,glycan array binding signal (z-score),[5],-0.295
same,glycan array binding signal (z-score),[6],-0.309
same,glycan array binding signal (z-score),[7],-0.308
same,glycan array binding signal (z-score),[8],-0.296
same,glycan array binding signal (z-score),[9],-0.307
same,glycan array binding signal (z-score),[10],-0.308
same,glycan array binding signal (z-score),[11],-0.306
same,glycan array binding signal (z-score),[12],-0.308
same,glycan array binding signal (z-score),[13],-0.305
same,glycan array binding signal (z-score),[14],-0.306
same,glycan array binding signal (z-score),[15],0.274
same,glycan array binding signal (z-score),[16],-0.258
same,glycan array binding signal (z-score),[17],-0.309
same,glycan array binding signal (z-score),[18],-0.308
same,glycan array binding signal (z-score),[19],-0.308
same,glycan array binding signal (z-score),[20],2.39
same,glycan array binding signal (z-score),[21],0.362
same,glycan array binding signal (z-score),[22],-0.305
same,glycan array binding signal (z-score),[23],-0.308
same,glycan array binding signal (z-score),[24],-0.31
same,glycan array binding signal (z-score),[25],-0.307
same,glycan array binding signal (z-score),[26],-0.307
same,glycan array binding signal (z-score),[27],-0.309
same,glycan array binding signal (z-score),[28],-0.307
same,glycan array binding signal (z-score),[29],-0.308
same,glycan array binding signal (z-score),[30],-0.308
same,glycan array binding signal (z-score),[31],0.034
same,glycan array binding signal (z-score),[32],-0.247
same,glycan array binding signal (z-score),[33],-0.301
same,glycan array binding signal (z-score),[34],-0.305
same,glycan array binding signal (z-score),[35],-0.308
same,glycan array binding signal (z-score),[36],-0.307
same,glycan array binding signal (z-score),[37],2.02
same,glycan array binding signal (z-score),[38],0.057
